{"source": "patent US12186370", "about": "(CELGENE, dated 2025)", "key": {"[1]": {"target": "T1, recombinant human GDF-11 (growth differentiation factor 11) (human) (UniProt O95390)", "T1 sequence (looked up)": "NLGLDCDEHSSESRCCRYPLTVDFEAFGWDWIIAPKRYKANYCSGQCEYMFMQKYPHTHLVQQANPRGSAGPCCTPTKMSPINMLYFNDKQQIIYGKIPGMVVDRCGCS", "assay": "cell-based or functional assay"}, "[2]": {"target": "T2, GDF-11 bound to the cell surface of A204-CAGA12-Luc cells (GDF-11 in complex with ActIIB receptor) (human, UniProt O95390 299-407; Q13705 19-512)", "T2 construct": "Ligand already held by its receptor on cells; not free GDF-11; Other receptor chains of the complex (ActIB) are named only in passing; also called A204-CAGA12-Luc cell line pre-incubated with high, medium, or low concentrations of GDF-11", "T2 sequence (looked up) 1": "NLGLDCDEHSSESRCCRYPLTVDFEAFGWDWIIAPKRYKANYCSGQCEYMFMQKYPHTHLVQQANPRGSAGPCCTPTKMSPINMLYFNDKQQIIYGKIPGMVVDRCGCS", "T2 sequence (looked up) 2": "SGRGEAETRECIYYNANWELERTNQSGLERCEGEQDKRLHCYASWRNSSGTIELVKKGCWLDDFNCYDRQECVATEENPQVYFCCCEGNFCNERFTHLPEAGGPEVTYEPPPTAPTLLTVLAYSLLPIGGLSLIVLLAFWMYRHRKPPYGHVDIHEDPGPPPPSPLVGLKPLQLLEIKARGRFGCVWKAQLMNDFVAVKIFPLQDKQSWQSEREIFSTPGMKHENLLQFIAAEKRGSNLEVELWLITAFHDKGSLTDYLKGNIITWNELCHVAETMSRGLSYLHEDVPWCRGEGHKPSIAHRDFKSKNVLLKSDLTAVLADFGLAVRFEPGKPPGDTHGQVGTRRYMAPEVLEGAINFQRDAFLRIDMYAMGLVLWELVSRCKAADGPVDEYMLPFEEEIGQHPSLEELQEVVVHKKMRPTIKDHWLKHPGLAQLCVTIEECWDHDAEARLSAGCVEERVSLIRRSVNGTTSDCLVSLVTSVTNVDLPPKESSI", "assay": "flow cytometry: staining for Product 1 on A204-CAGA12-Luc cells pre-incubated with a high concentration of GDF-11; concentrations are not given"}, "[3]": {"target": "T3, ActIIB receptor on the cell surface of A204-CAGA12-Luc cells (human, UniProt Q13705 19-512)", "T3 construct": "whole, on cells; the whole receptor stood on the cells; also called ActRIIB; activin receptor type IIB", "T3 sequence (looked up)": "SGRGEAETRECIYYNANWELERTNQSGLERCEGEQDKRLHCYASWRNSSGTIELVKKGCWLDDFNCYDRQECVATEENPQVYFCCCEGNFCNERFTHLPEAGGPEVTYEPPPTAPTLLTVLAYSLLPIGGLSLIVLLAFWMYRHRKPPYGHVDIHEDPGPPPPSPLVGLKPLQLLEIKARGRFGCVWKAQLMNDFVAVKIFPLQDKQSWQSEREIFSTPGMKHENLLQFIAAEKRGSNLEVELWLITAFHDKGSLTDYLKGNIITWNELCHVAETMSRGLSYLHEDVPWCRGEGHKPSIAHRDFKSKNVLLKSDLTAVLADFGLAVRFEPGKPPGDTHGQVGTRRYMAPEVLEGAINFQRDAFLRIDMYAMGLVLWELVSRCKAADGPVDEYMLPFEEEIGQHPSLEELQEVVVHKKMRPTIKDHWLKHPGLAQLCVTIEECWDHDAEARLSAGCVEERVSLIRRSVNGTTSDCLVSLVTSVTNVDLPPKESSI", "assay": "flow cytometry: staining for Product 1 on A204-CAGA12-Luc cells in the absence of GDF-11; the Product 1 concentration is not given"}, "[4]": {"target": "T4, recombinant human GDF-11 (growth differentiation factor 11) (human, UniProt O95390 299-407)", "T4 sequence (looked up)": "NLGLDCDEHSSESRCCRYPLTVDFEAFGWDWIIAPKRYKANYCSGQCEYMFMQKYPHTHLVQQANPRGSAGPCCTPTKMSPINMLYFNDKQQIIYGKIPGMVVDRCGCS", "assay": "cell-based or functional assay"}}}
{"binder": "Product 1 under high pH stress (4 to 22 days) (Fc fusion, Asn (including Asn272/277) deamidated in 32.4 to 75.4%; 3.6 to 10.4% LMWS (Table 11)) ETRECIYYNANWELERTNQSGLERCEGEQDKRLHCYASWRNSSGTIELVKKGCWDDDFNCYDRQECVATEENPQVYFCCCEGNFCNERFTHLPEAGGPEVTYEPPPTG[human IgG1 Fc and a few adjoining residues not spelt out]", "values": [{"measurement": "% Potency (reporter gene assay), high pH stress T4", "setting": "[1]", "value": 85, "unit": "%"}, {"measurement": "% Potency (reporter gene assay), high pH stress T8", "setting": "[1]", "value": 100, "unit": "%"}, {"measurement": "% Potency (reporter gene assay), high pH stress T12", "setting": "[1]", "value": 79, "unit": "%"}, {"measurement": "% Potency (reporter gene assay), high pH stress T16", "setting": "[1]", "value": 79, "unit": "%"}, {"measurement": "% Potency (reporter gene assay), high pH stress T22", "setting": "[1]", "value": 68, "unit": "%"}]}
{"binder": "Product 1 under heat stress (40° C., 7 to 28 days) (Fc fusion, Asp (including Asp55/56/57) isomerized in 4.7 to 18.7% (Table 10)) ETRECIYYNANWELERTNQSGLERCEGEQDKRLHCYASWRNSSGTIELVKKGCWDDDFNCYDRQECVATEENPQVYFCCCEGNFCNERFTHLPEAGGPEVTYEPPPTG[human IgG1 Fc and a few adjoining residues not spelt out]", "values": [{"measurement": "% Potency (reporter gene assay), 40° C., 7 days", "setting": "[1]", "value": 78, "unit": "%"}, {"measurement": "% Potency (reporter gene assay), 40° C., 14 days", "setting": "[1]", "value": 66, "unit": "%"}, {"measurement": "% Potency (reporter gene assay), 40° C., 21 days", "setting": "[1]", "value": 63, "unit": "%"}, {"measurement": "% Potency (reporter gene assay), 40° C., 28 days", "setting": "[1]", "value": 46, "unit": "%"}]}
{"binder": "Product 1 (ActRIIB-Fc fusion protein; modified extracellular domain of human ActRIIB with L79D linked to the human IgG1 Fc domain) (Fc fusion, N- and O-glycosylated; C-terminal Lys clipped in about 95% of chains; low levels of pyroGlu, Pro amidation, Asn deamidation, Asp isomerization, Met oxidation, Lys glycation (Tables 2 and 3), 95% of chains lack it); also called ActRIIB ligand trap; ActIIB (L79D)-Fc) ETRECIYYNANWELERTNQSGLERCEGEQDKRLHCYASWRNSSGTIELVKKGCWDDDFNCYDRQECVATEENPQVYFCCCEGNFCNERFTHLPEAGGPEVTYEPPPTG[human IgG1 Fc and a few adjoining residues not spelt out]", "values": [{"measurement": "binding result", "setting": "[2]", "value": "no binding"}, {"measurement": "binding result", "setting": "[3]", "value": "no binding"}, {"measurement": "Potency (Relative to A10) (%), batch A1", "setting": "[4]", "value": 93, "unit": "%"}, {"measurement": "Potency (Relative to A10) (%), batch A2", "setting": "[4]", "value": 88, "unit": "%"}, {"measurement": "Potency (Relative to A10) (%), batch A3", "setting": "[4]", "value": 107, "unit": "%"}, {"measurement": "Potency (Relative to A10) (%), batch A4 (PRSA4)", "setting": "[4]", "value": 96, "unit": "%"}, {"measurement": "Potency (Relative to A10) (%), batch A5", "setting": "[4]", "value": 95, "unit": "%"}]}
